Data: PubChem BioAssay AID1645882 (National Center for Advancing Translational Sciences (NCATS), 2021)
About 120 (0.75%) of roughly 16,000 compounds were called active. About 4% were inconclusive and are not listed. Calls come from the whole dose curve; as a rule, active = well fitted inhibition curve with a large enough effect; inconclusive = small, poorly fitted or top-dose-only effect; inactive = no such curve, though single readings can be large or run the other way. Some of the results follow.

The molecules below were run against Rap guanine nucleotide exchange factor 3 (Homo sapiens) (UniProt O95398) (assay: Validation qHTS for antagonist of cAMP-regulated guanine nucleotide exchange factor 3 (EPAC1)). Details: EPAC1 Rap1B-BODIPY-GDP exchange, fluorescence; series mostly up to 150 µM; activity change, negative = inhibition: at the top concentration.
UniProt O95398, sequence (O95398 whole entry, looked up): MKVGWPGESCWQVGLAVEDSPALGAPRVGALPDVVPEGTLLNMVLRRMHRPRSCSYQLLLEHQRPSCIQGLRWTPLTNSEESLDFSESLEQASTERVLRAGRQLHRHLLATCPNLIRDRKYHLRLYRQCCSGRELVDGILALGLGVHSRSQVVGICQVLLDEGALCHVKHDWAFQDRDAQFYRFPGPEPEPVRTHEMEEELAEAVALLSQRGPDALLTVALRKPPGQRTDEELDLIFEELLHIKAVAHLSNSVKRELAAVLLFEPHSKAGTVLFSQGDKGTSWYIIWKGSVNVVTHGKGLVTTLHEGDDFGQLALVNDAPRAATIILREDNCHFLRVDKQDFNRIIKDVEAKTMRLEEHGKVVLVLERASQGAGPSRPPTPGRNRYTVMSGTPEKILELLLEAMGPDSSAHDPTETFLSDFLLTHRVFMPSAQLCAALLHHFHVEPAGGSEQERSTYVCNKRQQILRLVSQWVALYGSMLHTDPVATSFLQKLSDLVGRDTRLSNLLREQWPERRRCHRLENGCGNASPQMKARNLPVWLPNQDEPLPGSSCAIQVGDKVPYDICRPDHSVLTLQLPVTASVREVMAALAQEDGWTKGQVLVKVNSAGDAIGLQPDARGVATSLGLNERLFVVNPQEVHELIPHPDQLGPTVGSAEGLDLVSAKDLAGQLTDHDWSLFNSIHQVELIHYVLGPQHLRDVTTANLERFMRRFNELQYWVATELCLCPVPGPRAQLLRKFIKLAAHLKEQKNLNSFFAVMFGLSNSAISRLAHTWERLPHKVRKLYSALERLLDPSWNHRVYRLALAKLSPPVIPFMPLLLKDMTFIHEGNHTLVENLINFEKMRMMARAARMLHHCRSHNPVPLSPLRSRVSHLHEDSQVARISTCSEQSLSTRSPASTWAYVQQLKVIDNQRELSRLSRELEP
Method in brief: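 Nucleotide exchange followed as fluorescence loss when BODIPY-GDP leaves Rap1B (480 nm excitation, 540 nm emission), read at 5 min intervals over 30 min. Reaction: 100 nM EPAC1, 250 nM RAP1B-BODIPY-GDP, 50 uM GDP; ATA and DMSO define normalization.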
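Note: plate controls were DMSO for no effect and ATA control for full effect; nearly all actives have a fitted effect of over 75% in size.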

Activity change, negative = inhibition, inactive:
COc1ccccc1-c1nc(Nc2ccncc2)c2ccccc2n1 10.9%
CC1=CC(=O)CC(C)(C)C1(O)/C=C/C(C)=C\C(=O)O (stereo not given)
O=C(Nc1cccc(F)c1)N1CCC2(CCNCC2)CC1 14%
c1ccc(C(c2ccccc2)N2CC3(CCNCC3)C2)cc1 20.3%
O=C(c1ccncc1)N1CCC2(CC1)CN(c1ccncc1)C2 9.54%
CN1CC[C@@]2(CCCN(C(=O)c3cccc(F)c3)C2)C1 19.4%
COc1cccc(Cn2c(=O)cnc3cnc(Oc4cccc(Cl)c4)nc32)c1 1.56%
COC(=O)C1CCCCN1Cc1ccc2c(c1)CN(Cc1cn[nH]c1-c1ccc(F)cc1)CCO2 (stereo not given) -4.67%
CCCN(CCc1ccccc1)C1CCc2c(O)cccc2C1 (stereo not given)
CNc1ccnc(-c2ccccc2C(F)(F)F)n1 10.3%
N.N.N.N.N.N.N.N.N.N.N.N.N.N.O.O.[Ru+4].[Ru+5].[Ru+5] -13.3% [at 75.8 µM]
Cc1ccccc1-c1ccc(CN2CCc3nnc(CNC(=O)c4ccccn4)n3CC2)cc1 17.2%
CN(C)C/C=C(\c1ccc(Br)cc1)c1cccnc1 7.23%
CN(C)C(=O)CNC(=O)Cc1ccccc1 4.56%
CN1c2ccccc2-c2ccccc2S1(=O)=O 13.9%
COC(=O)C1N2C(=O)N(C)[C@H](C(=O)OC)[C@H]2SC1(C)C (stereo not given in full) 4.83%
NC(=O)c1cccc(N)c1
COCC(=O)N1CCC2(CCCN(C(=O)Nc3ccccc3)C2)CC1 20%
O=C(c1cscn1)N1CCOc2ccc(CN3CCC(Oc4cccnc4)CC3)cc2C1 9.58%
COc1ccc(CN2CCOc3ccc(CN4CCC(Oc5cccnc5)CC4)cc3C2)cc1 9.96%
COc1ccccc1C(=O)N[C@@H]1c2ccccc2C2(CCN(Cc3nc(C(C)C)cs3)CC2)[C@H]1O 0.958%
COc1ccc(CN2CCOc3c(O)cc(-c4cc(C)c5ccc(F)cc5n4)cc3C2)c(O)c1 -20.2%
Cc1noc(C)c1-c1cc(NCCN2CCOCC2)ncn1 5.32%
O=c1c(-c2ccc(O[C@@H]3O[C@H](CO)[C@@H](O)[C@H](O)[C@H]3O)cc2)coc2cc(O)cc(O)c12 -10.6%
Cc1cc(O)c2c(O)c3c(O)cccc3cc2c1 5.03%
C=CCSCC1Nc2cc(Cl)c(S(N)(=O)=O)cc2S(=O)(=O)N1 (stereo not given) 8.86%
CN1CC[C@@]2(CCCN(C(=O)c3cc(C(F)(F)F)cc(C(F)(F)F)c3)C2)C1 2.68%
COCCNc1nc(-c2ccc(N(C)C)cc2)nc2ccccc12 17.2%
COc1ccccc1CCn1c(=O)c(-c2ccc(Cl)cc2)nc2cncnc21 -3.13%
COc1cccc(Nc2ncc3nc(-c4cn(C)c5ccccc45)c(=O)n(C[C@H]4CCCO4)c3n2)c1 44.2%
O=c1c(-c2cc(F)cc(F)c2)nc2cncnc2n1Cc1ccc(F)cc1 -10.9%
O=C(O)C[C@H]1c2cc(F)ccc2S(=O)(=O)N1Cc1ccccc1 -3.96%
CCCOc1ccc(C(=O)OCCN(CC)CC)cc1N 30.8%
Cc1noc(C)c1C(=O)N1CCC2(CC1)CN(Cc1cc(C(F)(F)F)cc(C(F)(F)F)c1)C2 6.74%
Cn1cccc1C(=O)N1CCC2(CC1)CN(Cc1cc(C(F)(F)F)cc(C(F)(F)F)c1)C2 -11.3%
Nc1nc2c(ncn2CCC(CO)CO)c(=O)[nH]1 15.5%
COc1ccc2cc(CNCc3ccccc3C(F)(F)F)c(N3CCCC(CO)C3)nc2c1 (stereo not given) 8.84%
N#Cc1cccc(-c2ccc3ncnc(N4CCNCC4)c3c2)c1 2.65%
COC1C(O)C(O)C(O)C(O)C1O (stereo not given) 15.1%
COC(=O)Nc1ccc2[nH]cc(CCNC(C)=O)c2c1
CCC[C@H]1COCCS(=O)(=O)N1Cc1ccc(Br)cc1 -29.5%
O=c1c(-c2ccc(Cl)cc2)nc2cnc(N3CCNCC3)nc2n1Cc1cccs1 -14.9%
C=CCN1c2ccccc2C(=O)CS1(=O)=O 14.9%
Nc1ccccc1C(=O)CC(N)C(=O)O (stereo not given)
CCCN1CCC(=O)N(CCOc2ccccc2)CC1 -5.59%
CC(=O)OC1CC2C(C)(C)C(=O)CC[C@]2(C)C2CC[C@]3(C)C(=CC(=O)OC3c3ccoc3)[C@]12C (stereo not given in full) 8.46%
CS(=O)(=O)N1CCC[C@@]2(CCN(c3ncccn3)C2)C1 8.65%
CN1C2CCC1CC(OC(=O)C(O)c1ccccc1)C2 (stereo not given)
O=C(c1ccco1)N1CCC2(CC1)CCN(c1ccccc1)CC2 23.5%
CCN(CC)CCOCCOC(=O)C(CC)(CC)c1ccccc1 -9.82%
CCC(Cc1c(I)cc(I)c(O)c1I)C(=O)O (stereo not given) -11.7%
CCn1c2ccccc2c2cc(CN3CCOc4ccc(C(O)c5cccnc5)cc4C3)ccc21 (stereo not given) -2.64%
CC1(C)Oc2ccc3ccc(=O)oc3c2CC1O (stereo not given) 18.8%
CC[C@@H](CO)NCCN[C@@H](CC)CO 7.19% [at 75.8 µM]
CCCCCCCCCCCCCC(=O)O[C@H](CC(=O)O)C[N+](C)(C)C 2.67%
O=c1cc(-c2ccccc2)oc2c1ccc1ccccc12 -7.73%
CC(CN(C)C)C(C)(O)Cc1ccc(Cl)cc1 (stereo not given) 24.9%
C[C@]1(Cn2ccnn2)[C@H](C(=O)O)N2C(=O)C[C@H]2S1(=O)=O 12.8%
Cn1cc(-c2nc3cnc(Oc4ccccc4)nc3n(C)c2=O)c2ccccc21 20.8%
CCCN1CCC(=O)N([C@H](COc2ccccc2)c2ccccc2)CC1 5.05%
COc1ncc2nc(-c3cc(F)cc(F)c3)c(=O)n(C[C@H]3CCCO3)c2n1 16.2%
CC1CN(CC(=O)N2CCN(Cc3nccn3C)CC2)Cc2cc(Cl)ccc2O1 (stereo not given) 5.48%
CC(=O)OCC(=O)[C@@]1(OC(C)=O)[C@@H](C)C[C@H]2[C@@H]3C[C@H](F)C4=CC(=O)C=C[C@]4(C)[C@@]3(F)[C@@H](O)C[C@@]21C 2.71%
O=C(C[n+]1cc(Br)cc2ccccc21)c1ccc(Br)cc1 17.6%
CC(N=C(NC#N)Nc1ccncc1)C(C)(C)C (stereo not given)
O=C(NCCN1CCCCC1)c1ccc(I)cc1
COc1cc(OC)c(OC)cc1CN1CCOc2ccc(CN3CCN(C(C)=O)CC3)cc2C1 9.76%
C[n+]1ccc(/C=C/c2ccc3ccccc3c2)cc1 13.7%
CS(=O)(=O)N1CCC[C@@]2(CCN(C(=O)Nc3cccc(C#N)c3)C2)C1 7.87%
N#Cc1ccc(CN2CCC3(CC2)CCN(C(=O)c2cnccn2)CC3)cc1 24.6%
